The other results are listed elsewhere or left out.
Legend:
Assay in all cases: glycan array binding signal (z-score within array); higher = stronger binding
Details in all cases: glycan notation: IUPAC condensed, linker removed
[1] = target: Gal(b1-4)GlcNAc(b1-2)[Gal(b1-4)GlcNAc(b1-4)]Man(a1-3)[GlcNAc(b1-4)][Gal(b1-4)GlcNAc(b1-2)Man(a1-6)]Man(b1-4)GlcNAc(b1-4)GlcNAc
In short: (§1)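 Columns mapping to the same glycan were averaged after glycan names were converted to IUPAC-condensed notation. The data come from 3228 arrays in the Consortium for Functional Glycomics database, limited to those with an available protein sequence. Binding is reported as a within-array Z-score averaged across arrays of one protein sequence and across linkers.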

[2] = target: Gal(b1-4)GlcNAc(b1-2)[Gal(b1-4)GlcNAc(b1-4)]Man(a1-3)[GlcNAc(b1-4)][Gal(b1-4)GlcNAc(b1-2)[Gal(b1-4)GlcNAc(b1-6)]Man(a1-6)]Man(b1-4)GlcNAc(b1-4)GlcNAc
In short: as §1

[3] = target: Gal(b1-4)GlcNAc(b1-2)[Gal(b1-4)GlcNAc(b1-4)]Man(a1-3)[GlcNAc(b1-4)][Gal(b1-4)GlcNAc(b1-2)[Gal(b1-4)GlcNAc(b1-6)]Man(a1-6)]Man(b1-4)GlcNAc(b1-4)[Fuc(a1-6)]GlcNAc
In short: as §1

[4] = target: Gal(b1-4)GlcNAc(b1-2)[Gal(b1-4)GlcNAc(b1-6)]Man(a1-6)[Gal(b1-4)GlcNAc(b1-2)Man(a1-3)]Man(b1-4)GlcNAc(b1-4)GlcNAc
In short: as §1

[5] = target: Gal(b1-4)GlcNAc(b1-2)[Gal(b1-4)GlcNAc(b1-6)]Man(a1-6)[Gal(b1-4)GlcNAc(b1-2)Man(a1-3)]Man(b1-4)GlcNAc(b1-4)[Fuc(a1-6)]GlcNAc
In short: as §1

[6] = target: Gal(b1-4)GlcNAc(b1-2)[Gal(b1-4)GlcNAc(b1-6)]Man(a1-6)[GlcNAc(b1-4)][Gal(b1-4)GlcNAc(b1-2)Man(a1-3)]Man(b1-4)GlcNAc(b1-4)GlcNAc
In short: as §1

[7] = target: Gal(b1-4)GlcNAc(b1-3)Gal(b1-3)GlcNAc
In short: as §1

[8] = target: Gal(b1-4)GlcNAc(b1-3)Gal(b1-4)Glc
In short: as §1

[9] = target: Gal(b1-4)GlcNAc(b1-3)Gal(b1-4)GlcNAc
In short: as §1

[10] = target: Gal(b1-4)GlcNAc(b1-3)Gal(b1-4)GlcNAc(b1-3)Gal(b1-4)GlcNAc
In short: as §1

[11] = target: Gal(b1-4)GlcNAc(b1-3)Gal(b1-4)[Fuc(a1-3)GlcNAc(b1-6)]Gal(b1-4)Glc
In short: as §1

[12] = target: Gal(b1-4)GlcNAc(b1-3)Gal(b1-4)[Fuc(a1-3)]GlcNAc(b1-3)Gal(b1-4)[Fuc(a1-3)]GlcNAc
In short: as §1

[13] = target: Gal(b1-4)GlcNAc(b1-3)GalNAc
In short: as §1

[14] = target: Gal(b1-4)GlcNAc(b1-3)[Gal(b1-4)GlcNAc(b1-6)]Gal(b1-4)GlcNAc
In short: as §1

[15] = target: Gal(b1-4)GlcNAc(b1-3)[Gal(b1-4)GlcNAc(b1-6)]GalNAc
In short: as §1

[16] = target: Gal(b1-4)GlcNAc(b1-3)[GlcNAc(b1-6)]Gal(b1-4)GlcNAc
In short: as §1

[17] = target: Gal(b1-4)GlcNAc(b1-6)Gal(b1-4)GlcNAc
In short: as §1

[18] = target: Gal(b1-4)GlcNAc(b1-6)GalNAc
In short: as §1

[19] = target: Gal(b1-4)GlcNAc(b1-6)[Gal(b1-3)]GalNAc
In short: as §1

[20] = target: Gal(b1-4)GlcNAc6P
In short: as §1

[21] = target: Gal(b1-6)Gal
In short: as §1

[22] = target: Gal3S(b1-3)GalNAc
In short: as §1

[23] = target: Gal3S(b1-3)GlcNAc
In short: as §1

[24] = target: Gal3S(b1-3)[Fuc(a1-4)]GlcNAc
In short: as §1

[25] = target: Gal3S(b1-4)Glc
In short: as §1

[26] = target: Gal3S(b1-4)Glc6S
In short: as §1

[27] = target: Gal3S(b1-4)GlcNAc
In short: as §1

[28] = target: Gal3S(b1-4)GlcNAc6S
In short: as §1

[29] = target: Gal3S(b1-4)[Fuc(a1-3)]Glc
In short: as §1

[30] = target: Gal3S(b1-4)[Fuc(a1-3)]Glc6S
In short: as §1

[31] = target: Gal3S4S(b1-4)GlcNAc
In short: as §1

[32] = target: Gal3S6S(b1-4)GlcNAc
In short: as §1

[33] = target: Gal3S6S(b1-4)GlcNAc6S
In short: as §1

[34] = target: Gal4S(b1-4)GlcNAc
In short: as §1

[35] = target: Gal4S6S(b1-4)GlcNAc
In short: as §1

[36] = target: Gal6P(b1-4)GlcNAc
In short: as §1

[37] = target: Gal6S(b1-3)GlcNAc
In short: as §1

[38] = target: Gal6S(b1-3)GlcNAc6S
In short: as §1

[39] = target: Gal6S(b1-4)Glc
In short: as §1

[40] = target: Gal6S(b1-4)Glc6S
In short: as §1

[41] = target: Gal6S(b1-4)GlcNAc
In short: as §1

[42] = target: Gal6S(b1-4)GlcNAc6S
In short: as §1

[43] = target: GalNAc(a1-3)Gal
In short: as §1

[44] = target: GalNAc(a1-3)GalNAc
In short: as §1

[45] = target: GalNAc(a1-3)GalNAc(b1-3)Gal(a1-4)Gal(b1-4)Glc
In short: as §1

[46] = target: GalNAc(a1-3)GalNAc(b1-3)Gal(a1-4)Gal(b1-4)GlcNAc
In short: as §1

[47] = target: GalNAc(b1-3)Gal
In short: as §1

[48] = target: GalNAc(b1-3)Gal(a1-4)Gal(b1-4)GlcNAc
In short: as §1

[49] = target: GalNAc(b1-3)Gal(a1-4)Gal(b1-4)GlcNAc(b1-3)Gal(b1-4)Glc
In short: as §1

[50] = target: GalNAc(b1-3)Gal(a1-6)Gal(b1-4)Glc
In short: as §1

[51] = target: GalNAc(b1-3)GalNAc
In short: as §1

[52] = target: GalNAc(b1-4)Gal(b1-4)Glc
In short: as §1

[53] = target: GalNAc(b1-4)GlcNAc
In short: as §1

[54] = target: GalNAc(b1-4)GlcNAc(b1-2)Man(a1-3)[GalNAc(b1-4)GlcNAc(b1-2)Man(a1-6)]Man(b1-4)GlcNAc(b1-4)GlcNAc
In short: as §1

[55] = target: GalNAc(b1-4)GlcNAc6S
In short: as §1

[56] = target: GalNAc(b1-6)GalNAc
In short: as §1

[57] = target: GalNAc3S(b1-4)GlcNAc
In short: as §1

[58] = target: GalNAc3S(b1-4)GlcNAc3S
In short: as §1

[59] = target: GalNAc4S6S(b1-4)GlcNAc
In short: as §1

[60] = target: GalNAc6S(b1-4)GlcNAc
In short: as §1

B1: CvGal1 (Crassostrea virginica), A7Y0I5 (protein)
chain: MTYQISKISQPFTSYIPNGLHIGKHLLLRGRVSYGTEAFAINLQQNPEPCNGEVAFHFNPRPGEQQCVRNSFDGGSWMDEERDQPHFPFDEGRSFTLRIEVAEEGFRTYVNGKPYVNFSHRLDLGNVHYLYLTEGAEFYDISYQDRYTLPYKSEIPQQMNVGKAVRIRGASQDNDGFSVNFACDPDNENCAFHFNPRPNEGVVVRNANLGGWGDEERDYEAEFPFHPYNYFDAMFICTDDKYLVHVNDKYFTEFNHRGGVDASSFFNIVGNLDIQDVEYFEPLEDDFVKTIPSGLVKGDVLIFRGFMKPGGDTFSINFMNGYSVEDDIAFHLNPRVGEGQVVMNCCMGGAWGDEEREDIPSPLADREPFEVKVVVKKNKFKVYVNGKKCMKFAARGNLEDIKGVNIKGEAYVYEVKLERKLEDSWEYLPGGFRVGGWVVVQAIPKKGSEGFAINFRTGSDEDSDIAFHFNPRLQENCTIRNSCAGGAWGGEERDQPDFPFEKKDTCEIAIQAQPDRFVTYVNGKRYIEFNHRLPLESITCVELTGRADFFEPKFF
Q: With B1 as the binder, how does the “glycan array binding signal (z-score)” value [1] read?
A: 0.373

Q: What about the “glycan array binding signal (z-score)” value [2] of the same binder?
A: 0.119

Q: And the “glycan array binding signal (z-score)” value [3]?
A: -0.057

Q: What about the “glycan array binding signal (z-score)” value [4] of the same binder?
A: -0.201

Q: What about the “glycan array binding signal (z-score)” value [5] of the same binder?
A: -0.134

Q: What about the “glycan array binding signal (z-score)” value [6] of the same binder?
A: -0.118

Q: What about the “glycan array binding signal (z-score)” value [7] of the same binder?
A: -0.209

Q: And the “glycan array binding signal (z-score)” value [8]?
A: -0.253

Q: What about the “glycan array binding signal (z-score)” value [9] of the same binder?
A: -0.214

Q: And the “glycan array binding signal (z-score)” value [10]?
A: -0.172

Q: And the “glycan array binding signal (z-score)” value [11]?
A: -0.264

Q: And the “glycan array binding signal (z-score)” value [12]?
A: -0.264

Q: What about the “glycan array binding signal (z-score)” value [13] of the same binder?
A: -0.248

Q: And the “glycan array binding signal (z-score)” value [14]?
A: 0.12

Q: And the “glycan array binding signal (z-score)” value [15]?
A: -0.236

Q: What about the “glycan array binding signal (z-score)” value [16] of the same binder?
A: -0.268

Q: And the “glycan array binding signal (z-score)” value [17]?
A: -0.269

Q: What about the “glycan array binding signal (z-score)” value [18] of the same binder?
A: -0.267

Q: What about the “glycan array binding signal (z-score)” value [19] of the same binder?
A: -0.281

Q: What about the “glycan array binding signal (z-score)” value [20] of the same binder?
A: -0.272

Q: And the “glycan array binding signal (z-score)” value [21]?
A: -0.276

Q: And the “glycan array binding signal (z-score)” value [22]?
A: -0.239

Q: What about the “glycan array binding signal (z-score)” value [23] of the same binder?
A: -0.142

Q: What about the “glycan array binding signal (z-score)” value [24] of the same binder?
A: -0.258

Q: And the “glycan array binding signal (z-score)” value [25]?
A: -0.263

Q: What about the “glycan array binding signal (z-score)” value [26] of the same binder?
A: -0.22

Q: And the “glycan array binding signal (z-score)” value [27]?
A: -0.277

Q: What about the “glycan array binding signal (z-score)” value [28] of the same binder?
A: -0.288

Q: What about the “glycan array binding signal (z-score)” value [29] of the same binder?
A: -0.315

Q: And the “glycan array binding signal (z-score)” value [30]?
A: -0.223

Q: And the “glycan array binding signal (z-score)” value [31]?
A: -0.279

Q: And the “glycan array binding signal (z-score)” value [32]?
A: -0.269

Q: And the “glycan array binding signal (z-score)” value [33]?
A: -0.273

Q: And the “glycan array binding signal (z-score)” value [34]?
A: -0.296

Q: And the “glycan array binding signal (z-score)” value [35]?
A: -0.212

Q: What about the “glycan array binding signal (z-score)” value [36] of the same binder?
A: -0.272

Q: What about the “glycan array binding signal (z-score)” value [37] of the same binder?
A: -0.297

Q: And the “glycan array binding signal (z-score)” value [38]?
A: -0.231

Q: What about the “glycan array binding signal (z-score)” value [39] of the same binder?
A: -0.291

Q: What about the “glycan array binding signal (z-score)” value [40] of the same binder?
A: -0.256

Q: And the “glycan array binding signal (z-score)” value [41]?
A: -0.27

Q: And the “glycan array binding signal (z-score)” value [42]?
A: -0.182

Q: What about the “glycan array binding signal (z-score)” value [43] of the same binder?
A: -0.235

Q: What about the “glycan array binding signal (z-score)” value [44] of the same binder?
A: -0.255

Q: What about the “glycan array binding signal (z-score)” value [45] of the same binder?
A: 3.5

Q: What about the “glycan array binding signal (z-score)” value [46] of the same binder?
A: 1.87

Q: And the “glycan array binding signal (z-score)” value [47]?
A: -0.286

Q: And the “glycan array binding signal (z-score)” value [48]?
A: -0.309

Q: What about the “glycan array binding signal (z-score)” value [49] of the same binder?
A: -0.29

Q: And the “glycan array binding signal (z-score)” value [50]?
A: -0.271

Q: What about the “glycan array binding signal (z-score)” value [51] of the same binder?
A: -0.247

Q: And the “glycan array binding signal (z-score)” value [52]?
A: -0.266

Q: What about the “glycan array binding signal (z-score)” value [53] of the same binder?
A: -0.249

Q: And the “glycan array binding signal (z-score)” value [54]?
A: -0.184

Q: And the “glycan array binding signal (z-score)” value [55]?
A: -0.266

Q: What about the “glycan array binding signal (z-score)” value [56] of the same binder?
A: -0.307

Q: What about the “glycan array binding signal (z-score)” value [57] of the same binder?
A: -0.261

Q: What about the “glycan array binding signal (z-score)” value [58] of the same binder?
A: -0.222

Q: And the “glycan array binding signal (z-score)” value [59]?
A: -0.283

Q: And the “glycan array binding signal (z-score)” value [60]?
A: -0.302
